# Experimental data taken from PMC4336329 (PLoS ONE, 2015).
# Hit rate of the full screen: of about 310,000 compounds, about 2,200 (0.71%) showed an effect of 50% or more. Effects have a minus sign here. Some of the results follow.
# Target: human ether-à-go-go-related gene (hERG) potassium channel (human, UniProt Q12809)
# Experiment: primary screen, population patch clamp on CHO cells stably expressing hERG
# human ether-à-go-go-related gene (hERG) potassium channel, sequence (Q12809 whole entry, looked up): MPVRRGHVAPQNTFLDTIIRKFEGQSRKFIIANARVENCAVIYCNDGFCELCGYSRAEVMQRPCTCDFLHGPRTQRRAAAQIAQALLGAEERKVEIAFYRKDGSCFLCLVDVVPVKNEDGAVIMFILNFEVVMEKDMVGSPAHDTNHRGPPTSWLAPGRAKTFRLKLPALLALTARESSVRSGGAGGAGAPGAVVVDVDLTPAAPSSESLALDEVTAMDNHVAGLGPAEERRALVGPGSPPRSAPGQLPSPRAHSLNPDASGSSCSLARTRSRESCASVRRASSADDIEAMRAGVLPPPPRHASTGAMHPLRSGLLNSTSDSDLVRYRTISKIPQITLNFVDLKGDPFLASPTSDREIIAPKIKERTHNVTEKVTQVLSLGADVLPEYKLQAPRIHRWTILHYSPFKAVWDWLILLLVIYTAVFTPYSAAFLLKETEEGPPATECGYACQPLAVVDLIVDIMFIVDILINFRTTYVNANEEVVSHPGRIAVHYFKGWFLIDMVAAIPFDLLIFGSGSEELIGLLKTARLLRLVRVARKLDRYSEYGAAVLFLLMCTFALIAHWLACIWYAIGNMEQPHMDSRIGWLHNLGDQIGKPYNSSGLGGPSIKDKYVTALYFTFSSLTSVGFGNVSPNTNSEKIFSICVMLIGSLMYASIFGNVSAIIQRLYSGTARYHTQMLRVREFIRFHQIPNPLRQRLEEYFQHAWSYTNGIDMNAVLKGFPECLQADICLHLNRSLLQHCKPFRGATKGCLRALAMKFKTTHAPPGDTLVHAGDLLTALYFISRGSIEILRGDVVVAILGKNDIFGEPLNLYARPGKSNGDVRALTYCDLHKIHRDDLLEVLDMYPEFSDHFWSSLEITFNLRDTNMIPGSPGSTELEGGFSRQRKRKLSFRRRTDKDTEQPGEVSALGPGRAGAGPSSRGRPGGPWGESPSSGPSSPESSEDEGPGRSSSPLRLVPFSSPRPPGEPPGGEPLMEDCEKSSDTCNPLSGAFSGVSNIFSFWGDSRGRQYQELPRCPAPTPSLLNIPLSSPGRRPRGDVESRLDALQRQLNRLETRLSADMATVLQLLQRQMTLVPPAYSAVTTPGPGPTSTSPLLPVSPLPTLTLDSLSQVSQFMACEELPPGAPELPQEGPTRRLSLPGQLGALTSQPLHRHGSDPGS
row,SMILES,"hERG current change (%, negative = inhibition) at 1uM [%]"
1,COCCNC(=S)N1CCN(c2nc(-c3ccccc3)cs2)CC1,8.47
2,O=C(O)C1CCN(C(=O)c2ccccc2C(=O)N2CCC(C(=O)O)CC2)CC1,22.3
3,CC1CC(=O)Nc2ccccc2N1S(=O)(=O)c1ccc(Br)cc1 (stereo not shown),18.9
4,NC(=O)NC(=O)CSc1ccccc1,7.79
5,CC1CC(OC(=O)CN2CCCCC2)CC(C)(C)C1 (stereo not shown),8.75
6,CC(=O)Nc1nc2ccccc2n1Cc1ccccc1,8.01
7,Cc1ccc2[nH]c(SCC(=O)N3CCOCC3)nc2c1C,3.17
8,CC(=O)N1CCSc2ccc(S(=O)(=O)Nc3ccccc3C)cc21,3.51
9,CN(C)c1ccc(CNC(=O)c2cc(S(=O)(=O)N3CCCC3)cn2C)cc1,8.54
10,Cc1nnc2sc(SCc3ccccc3Cl)nn2c1=O,-2.74
11,CC(=O)C(Cc1ccccc1)NC(=O)CN(C)Cc1ccccc1Cl (stereo not shown),7.15
12,Cc1cc(=O)oc2c(C)c(OC(C)C(=O)NCC(O)c3ccccc3)ccc12 (stereo not shown),12.3
13,Cc1ccc(C(=O)OCC(=O)N2CC(C)CC(C)C2)cc1S(=O)(=O)N1CCCCC1 (stereo not shown),-6.87
14,COc1cc(C(=O)OCC(=O)N(CC(C)C)C2CCS(=O)(=O)C2)ccc1OCC(C)C (stereo not shown),-9.36
15,COc1ccc(N2C(=O)CC(n3cnc4ccccc43)C2=O)cc1 (stereo not shown),13
16,COc1ccc(C(CNC(=O)C2CC(=O)N(Cc3ccc(C)cc3)C2)N(C)C)cc1 (stereo not shown),-11.2
17,O=C(CCCCCNc1nc(=S)[nH]c2ccccc12)NCc1ccccc1Cl,5.66
18,O=C(Nc1ccc(Cl)c(Cl)c1)N(CCCN1CCOCC1)Cc1cccnc1,-5.32
19,O=C(NCc1cccnc1)C(Cl)(Cl)Cl,-1.11
20,CCOC(=O)c1c(NC(NC(=O)C(C)C)C(Cl)(Cl)Cl)sc2c1CCC2 (stereo not shown),6.26

row,SMILES,"hERG current change (%, negative = inhibition) at 1uM [%]"
1,Cc1ccc(-c2ccc(C3C(C#N)=C(N)Oc4n[nH]c(C)c43)o2)cc1 (stereo not shown),14.9
2,Cc1nc2ccc(NC(=O)N3CCOCC3)cc2s1,15.7
3,O=C(OCC(=O)N1CCCCC1)c1ccccc1SCC(=O)N1CCCCC1,1.49
4,Cn1c(=O)[nH]c(=O)c2c1nc(NCc1ccccc1)n2CCCc1ccccc1,6.85
5,O=C(Cc1ccc([N+](=O)[O-])cc1)NC(C(=O)[O-])C(O)c1cccc([N+](=O)[O-])c1.[Na+] (stereo not shown),4.75
6,O=C(NC(=S)Nc1cccnc1)c1cccc(Br)c1,15.7
7,CCOc1ccc(C(=O)NCC(=O)OCc2c(F)cccc2Cl)cc1,6.64
8,CCOc1ccc(C(=O)NCC(=O)NCC(c2ccco2)N2CCCCC2)cc1OCC (stereo not shown),11
9,Cc1nn(-c2ccccc2)c(Cl)c1/C=N/NC(=O)c1ccccc1F,13
10,CSc1nsc(SC)c1NC(=O)OCC1CCCO1 (stereo not shown),16
11,CCOC(=O)c1oc2ccc(Cl)cc2c1NC(C)=O,11.1
12,COc1ccc(CC(=O)OCC(=O)Nc2ccc3c(c2)OCO3)cc1,9.83
13,CC(=O)OCC(=O)C1CCC2C3CC=C4CC(O)CCC4(C)C3CCC12C (stereo not shown),18
14,COc1ccc(/C(N)=N/OC(=O)CC2CCCCC2)cc1,9.92
15,COc1ccc(CCC(C)Nc2cccc(C)c2)cc1 (stereo not shown),0.16
16,O=C(NCCc1ccccc1)c1ccc2c(c1)OCO2,19.3
17,CCCCn1c(-c2ccc(Cl)c(Cl)c2)nc2cc3[nH]c(=O)c(C(C)C)nc3cc21,5.67
18,NC(=S)NNC(=O)/C(=C/c1ccc(Br)cc1)NC(=O)c1ccccc1,26.7
19,CCCNC(=O)c1ccc(N2CCC3(CC2)CC(c2cccc(Br)c2)=NO3)c([N+](=O)[O-])c1,2.54
20,COCCN(C(=O)COC(=O)CCCOc1ccc(OC)cc1)c1c(N)n(Cc2ccccc2)c(=O)[nH]c1=O,6.56

row,SMILES,"hERG current change (%, negative = inhibition) at 1uM [%]"
1,Cn1ncc(Br)c1NC(=O)Nc1ccc(Cl)cc1,11.8
2,CC(=O)c1cc2c(cc1NS(=O)(=O)c1ccccc1Br)OCO2,13.3
3,CC1Oc2ccccc2C=C1/C=N\NC(=O)c1cccnc1 (stereo not shown),5.91
4,CCCCOC(=O)Oc1ccc2c(=O)c(Oc3cc(C)cc(C)c3)coc2c1,10.4
5,O=C(Nc1ccc(Cl)cc1N1CCOCC1)C1CCCO1 (stereo not shown),18.7
6,O=C(COC(=O)C1CCN(/C=C/C(=O)C(F)(F)F)CC1)Nc1cccc(F)c1,-3.44
7,Cc1cc(Cl)c2oc(C(=O)NCC(C)(C)N3CCOCC3)c(C)c2c1,5.01
8,O=C(Nc1ccc(Cl)cc1)Nc1ccc(Oc2cccnc2)nc1,15.8
9,CCNC(=S)N(CCc1c(C)[nH]c2ccc(Cl)cc12)Cc1ccco1,6.26
10,COc1ccc(CN(C(=O)c2cc3ccccc3oc2=O)C2CCS(=O)(=O)C2)cc1OC (stereo not shown),7.67
11,CC1(c2ccco2)NC(=O)NC1=O (stereo not shown),8.07
12,N#CCCN(C(=O)c1ccc2c(=O)n3c(nc2c1)CCCCC3)c1ccccc1,12.6
13,COc1cc(OC)c(S(=O)(=O)Nc2ccc(C(=O)N3CCCC3)cc2)cc1NC(C)=O,9.62
14,NC(=O)C1CCN(C(=O)CNC(=O)c2ccc(Br)o2)CC1,-0.324
15,CC1CCN(C(=O)CSc2nncn2C)CC1,5.63
16,CCCNS(=O)(=O)c1cc(Cl)ccc1OC,16.3
17,O=C(O)/C(=C\c1cn(-c2ccccc2)nc1-c1ccc(Cl)cc1)NC(=O)c1ccccc1,5.29
18,CCN(CC(=O)NCc1ccncc1)S(=O)(=O)c1ccc(OC)cc1,5.64
